Experimental data taken from the supplement of paper PMC3334620.
In all, about 33,000 sequences were measured (“E-score (-0.5 to 0.5)”: median about -0.032, highest 2% from about 0.36 on). Some of the results follow.

molecular target: T1, Sko1 (UniProt Q02100); assay: PBM E-score (8-mer binding enrichment) (E-score (-0.5 to 0.5)); higher = stronger / more preferred TF binding; most listed sequences are background and not binding sites; details: protein concentration: 200 nM; construct: GST-full length
T1 sequence: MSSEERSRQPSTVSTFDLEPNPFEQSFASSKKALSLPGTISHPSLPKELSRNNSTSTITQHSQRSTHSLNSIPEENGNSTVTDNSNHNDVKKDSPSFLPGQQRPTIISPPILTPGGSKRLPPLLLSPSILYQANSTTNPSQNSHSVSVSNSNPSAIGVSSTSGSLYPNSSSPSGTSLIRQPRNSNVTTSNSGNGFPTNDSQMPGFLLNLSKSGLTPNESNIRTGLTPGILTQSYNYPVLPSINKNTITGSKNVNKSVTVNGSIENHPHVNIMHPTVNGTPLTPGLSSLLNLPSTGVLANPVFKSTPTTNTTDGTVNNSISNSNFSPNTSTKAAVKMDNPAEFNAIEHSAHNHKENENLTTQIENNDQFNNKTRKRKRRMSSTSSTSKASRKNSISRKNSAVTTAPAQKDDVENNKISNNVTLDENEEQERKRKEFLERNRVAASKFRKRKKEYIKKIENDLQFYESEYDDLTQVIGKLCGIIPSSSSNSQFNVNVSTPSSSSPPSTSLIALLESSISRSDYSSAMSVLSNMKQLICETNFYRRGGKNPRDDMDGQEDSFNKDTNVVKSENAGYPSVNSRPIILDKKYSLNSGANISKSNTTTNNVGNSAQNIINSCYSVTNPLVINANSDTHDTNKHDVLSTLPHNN
Procedure, shortened: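 PURExpress in vitro transcription/translation supplied GST-tagged yeast transcription factors, either full-length or DNA-binding domain. Applied at about 100-200 nM to universal all-10-mer Agilent arrays double-stranded by primer extension, the bound protein was detected with fluorescent anti-GST. E-scores, modified Wilcoxon-Mann-Whitney statistics, were given by the Universal PBM Analysis Suite to ungapped eight-base words pooled with their reverse complements after masliner normalisation.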

Sequence	PBM E-score
GCCACAAA	0.0745
CGATTCAA	-0.0398
ATCACACC	-0.0596
CATGTGGA	-0.107
GGGCTCAC	-0.199
AGACGAAC	0.115
ACCAGGTC	-0.264
CTCTACAC	-0.259
CAGGACAA	0.0814
GAAAATCA	0.121
CCGTACGA	0.0901
CCGGCCGC	-0.294
AGTCATGC	-0.0777
CCCACGTA	0.39
CTTCACCA	-0.175
AGGAAATA	0.163
ACACTCAG	-0.0491
AATTGTAT	0.0636
ATTTTGGA	0.149
CACTTCCC	-0.103
ACAGTGTC	-0.18
TGTCAAAA	0.121
CTGAAATC	0.0112
CTCTAGGA	-0.335
AAAAAAGG	-0.0708

Sequence	PBM E-score
AGGAATCA	0.0412
AGCCCTGA	-0.127
GAGTCGTA	0.116
ACTGAATC	-0.0863
GGCCCGTA	-0.123
AATTCTAT	0.1
CCTTTGCG	0.128
GTTGTGTA	0.0323
CAAGAAAG	-0.0549
CCACCCCC	-0.379
CTTGTATA	-0.0926
CCAATCAC	0.0045
TCCCGGCA	-0.237
TCTAACAA	0.0283
AGGAACCA	-0.112
ATGTGCTG	-0.0303
AGTACTGC	-0.0861
GTCTGTGA	0.0518
ACACGGCT	-0.222
ATACCAAC	0.19
AATTGCTG	0.21
GCCATGAA	-0.219
CATACGCG	0.246
CCCTTGCA	-0.229
GGAGACGA	-0.0627

Sequence	PBM E-score
GTCAGACA	0.0919
ATGCGGCC	-0.125
CGGCCACC	-0.17
TAACCCCA	-0.265
GCATCGAC	-0.125
CCAATGAC	0.253
ATCAGCTG	0.0587
CCAGGCGA	-0.321
GATCGTTA	-0.0704
TCCTAAAA	0.132
CACCAGAA	-0.0828
AGGACACA	0.15
GATGACGA	0.474
CTTCCGAA	-0.134
CATTCCAA	0.189
CGCCAGAA	-0.112
CTAGAAGA	0.0318
ACCGGCCC	-0.23
AAGCTCCA	-0.0257
TTAGGAAA	-0.0404
CGGGTATC	-0.195
GCGGTCGA	-0.0383
TGGGGCAA	-0.224
AGGAATAC	0.0259
CATAAAGC	-0.0786

Sequence	PBM E-score
ATACACAG	-0.136
GGGTTATA	0.0376
ATATTTAG	0.226
GATCCGGA	-0.272
AATTTCGC	0.0675
ATACGGCG	0.0396
ATAGCATC	0.16
CACTCTTA	-0.00406
GACACCTC	-0.167
CTTGAAAC	-0.0486
GCCCGGGC	-0.186
GCGTGTCA	0.216
ACTCCAGA	-0.0951
CTTCGACA	-0.0275
AGAACGAT	-0.0494
ACTAGTAG	0.0587
ATGCGCAC	0.139
CGGAATAC	0.0896
AGGTCTCA	-0.131
ATCGTACA	0.168
AGGAAGAG	-0.157
CATCCTAG	-0.052
ACACTCTA	0.183
ACGGAGAG	-0.221
TCCTCACA	-0.0737

Sequence	PBM E-score
TACTAAAA	0.135
ACCCGTCT	-0.0961
AAATGTCA	0.108
GAGAGTGA	0.045
CCGAACGA	-0.133
GGGAAACA	-0.124
AATGTATG	0.127
ATTTTTTA	0.194
AGCCCGCG	-0.238
TGTCGGAA	-0.136
GATCGCCA	-0.27
CATCCATG	-0.0119
GACCGGAA	-0.215
CAAACGAC	0.11
AGGGCGAA	-0.185
AAAGCGTG	-0.0117
CCTGAGGC	-0.278
CCAGCCCA	-0.306
CGCTTTAC	0.2
GCCAAGGA	-0.0705
AACGGGGA	-0.232
CGCGGACA	-0.0824
CGTGTTTA	0.322
GCCTGCGA	-0.245
TCATCCAA	0.232

Sequence	PBM E-score
AATGAACT	0.0989
GCAATTGA	0.0583
GCGGGAGA	-0.2
CTGTTAGC	-0.139
ACTAAATC	0.102
CACACGGC	-0.0173
CAGTATAG	-0.0527
AAAGATGA	0.219
AGATTGAG	0.17
GGAAGTGA	0.119
CAATCACC	-0.0727
AAGATGAC	0.337
CGCGCGCC	0.147
CAAAACGC	0.162
ACAGAGGC	-0.261
ATAAGTAC	-0.0609
CCAAGGCG	-0.271
ATTAAGGG	-0.167
GACACCGC	-0.2
CCGCAGAC	-0.28
CGTTTTTC	0.182
AAGAAGGA	-0.0217
TGAGTGCA	-0.0765
AAGGATAT	0.145
GAGTCAAC	-0.0377

Sequence	PBM E-score
ACACCGCA	-0.17
CCCGCAAG	-0.317
AATTAGGA	0.0897
AACACCCG	0.00585
AATTTTTA	0.182
ACACGTAC	0.419
CAACGGTC	-0.134
AGAGGCGA	-0.212
AGAGGCAA	-0.0224
GCCCCATA	-0.119
ACCTTCTA	-0.163
GAGCAATC	-0.0678
GGAGGCCA	-0.306
CCTACGCG	0.117
AGTGCTCG	-0.0672
GCTAGGAA	-0.135
CCAACAGA	-0.143
CACCTACC	-0.0877
CAGAAAAA	0.067
CATTCTAG	0.0818
ATCTCGAG	-0.0182
GGGCTAAA	-0.182
AGCGGGGA	-0.159
CGGGTTTA	-0.0485
ACACCGCT	-0.242

Sequence	PBM E-score
CTCGTGAC	0.222
ACGACCAA	0.18
GGACCTAC	-0.106
CACAGAGG	-0.0682
ACACTTCG	0.185
CCTGGCCG	-0.199
AAATTTCT	0.00551
CCTATGCA	-0.039
AGGTAATG	0.112
GCTTGGAA	-0.0775
AATTTAAA	0.137
GACCACGC	0.0665
CCACACGC	0.0227
TCTCGCCA	-0.0542
CAAGTAAA	0.0923
CGTTGTTC	0.151
ACCTGGTC	-0.211
CGTGCTAC	0.208
CTGGTAGA	-0.0603
ACAATTTC	0.0832
CGGGGTAA	0.0163
CCATCCAA	-0.101
CATTCGGA	0.188
ATCTGCCG	-0.0838
CTCTGTAA	-0.131

Sequence	PBM E-score
GCTTCCGA	-0.0736
ATATGGTG	-0.0276
GACCAGTA	-0.214
CCAACTTC	-0.0206
GTGAATTA	0.162
ACCCCCAG	-0.345
AGCTTCCA	-0.177
CTTAGAGC	-0.127
ACAGAGGT	-0.158
CGTTGAAC	-0.041
GGGTGGTA	-0.121
AGCGATAA	0.00521
CGTAACAC	0.374
ACAGGCCT	-0.292
ACCCCAGT	-0.167
AGATGATG	0.308
CAGGTAGA	-0.0818
CAGGAAGG	-0.261
CTTCCATA	-0.00611
GTCGTTTA	0.266
GGGGGGCA	-0.211
GGCCGTTA	-0.125
GGCTAGCC	-0.379
AGTTAACG	0.169
ACGGGCTG	-0.139

Sequence	PBM E-score
TGACCCCA	-0.0496
CAGTCTAA	0.0503
TCGGTAGA	0.0245
AAAATCTT	0.0968
AGAGGGAG	-0.139
CTTAGACC	-0.0125
ACCGGCAC	-0.163
ACAGTGAG	-0.0194
GGGCATTA	-0.227
CTTAGCTC	-0.0962
AATTACCT	0.19
CCTTCCAC	-0.0222
GCTCACTA	-0.102
ACTTGTAC	-0.00416
CCTCTTCC	-0.343
ATGGTAGC	-0.243
GACGAACC	0.0641
TACCCTCA	-0.101
GCCCAGTA	-0.154
AGGGGCTC	-0.14
CCAGCGCA	-0.189
AAGGTACC	-0.202
GTTACAAA	0.213
CGCGGTTC	0.106
TAAGCGTA	0.0865

Sequence	PBM E-score
AGGAGGCG	-0.108
GAGGCACA	-0.214
AGCCTGCA	-0.0657
CTATATAG	0.123
ATTGCCGA	-0.135
CTTCCCCA	-0.117
AGAATGGA	0.0967
CCAATTTA	0.129
AACGCCTC	-0.352
CCAGTAAC	-0.136
CTAAAGTA	-0.0143
GGTGTACA	-0.0227
ACCCGTAG	-0.444
ACAACCTC	-0.186
CGCTTATC	-0.165
ATCGCAAG	-0.178
CAGGGGCG	-0.299
AACGACCT	-0.0493
CTGTGTGA	0.055
CATTGCGG	-0.109
GCGTGTGA	0.107
TTCATGAA	0.127
CAGCGCGA	0.066
CGCTACCG	-0.0311
AGCATAGC	0.148

Sequence	PBM E-score
GGTCTCTA	-0.124
GGAGTAAC	-0.136
AGCGATCA	-0.0729
GCATCCCA	-0.257
GGTTGGTA	0.119
AAAGCAGG	-0.0944
TGCCGGCA	-0.0955
CATGGGGG	-0.197
GCCCCGAA	-0.247
CAGCTCTA	-0.155
CTATGATA	0.0697
GTGCAGGA	-0.0573
AAGTTCCG	-0.137
AAACGGGA	-0.176
AAGCTCCT	-0.186
AAAAATCG	0.0645
ACTTCTTA	0.129
TACTGAGA	-0.0799
CTTGTGGC	-0.19
ATTATAAT	0.209
CACTTAAC	-0.0297
GTACGTTA	0.395
ACCTCCGT	-0.188
CACGGCAC	-0.216
GGGTCTTA	0.0227

Sequence	PBM E-score
ACAATCAG	0.241
ACGCCAGT	0.0136
ACCAACTC	0.129
CCAGAAAC	-0.134
CTTATACC	-0.0623
AGTCTAAA	-0.0217
CTTCCGAC	-0.0849
GGGGCCCC	-0.258
GTTTCGTA	0.326
AAGTTGCA	0.0498
AAGCGGCA	-0.0835
GAAGCAAA	0.0725
AGTACGAT	0.122
CGGGGCGA	-0.182
AACCCAAG	-0.00525
CAGTAGGC	-0.142
TGTACGAA	0.242
CCGCGCGA	0.0754
GTTATATA	0.19
CTCGAGAC	0.12
ATCAACTC	0.0355
CTATCGGC	-0.141
AAGGCGAC	-0.299
CGTTGTGC	0.172
ACGGCAGT	-0.061

Sequence	PBM E-score
CACACTCG	0.076
CAGCTGAC	0.0244
CACGTCGC	0.235
GCAGGAGC	-0.305
ATCCACAA	-0.00828
GAGATATA	0.0861
ATTCCTTC	-0.128
AGTTGTGA	0.0903
AATACGGC	0.0384
ACGAATAC	0.313
GGAAACAA	-0.0744
CCAAACAA	0.0665
ACACCATG	-0.0632
CCTTGTAA	0.00983
CCGCCCGC	-0.28
ATTATTGC	0.253
GATCAGAC	-0.126
AAGCCTCG	-0.137
TAGATTAA	0.206
